In the BET-seq Pho4 binding data (Le et al. 2018):
The list shows a part of the results. These are noisy estimates, calculated here from bound and input reads.

Biological target: T1, Pho4 (S. cerevisiae) (UniProt P07270)
T1 sequence: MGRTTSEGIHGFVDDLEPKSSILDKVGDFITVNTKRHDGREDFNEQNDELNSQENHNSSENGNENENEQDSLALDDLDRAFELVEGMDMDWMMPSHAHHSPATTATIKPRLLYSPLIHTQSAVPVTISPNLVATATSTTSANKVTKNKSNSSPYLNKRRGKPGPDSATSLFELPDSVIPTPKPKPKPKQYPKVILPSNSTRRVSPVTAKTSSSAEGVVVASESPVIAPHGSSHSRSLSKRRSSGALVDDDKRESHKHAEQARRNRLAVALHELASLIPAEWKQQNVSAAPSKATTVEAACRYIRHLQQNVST
Test: relative binding free energy (BET-seq); higher = weaker binding
Settings: reference: library average

Relative binding free energy, 0.38 kcal/mol:
GTGTTCACGTGAAAGA

Relative binding free energy, 0.1 kcal/mol:
TAAGTCACGTGTCGGG

Relative binding free energy, -0.03 kcal/mol:
CTTGGCACGTGGATGT
ATAATCACGTGGGTAT
AAAGTCACGTGCTGGG

Relative binding free energy, 0.39 kcal/mol:
GGTTTCACGTGTCAAA

Relative binding free energy, -0.3 kcal/mol:
TCGCGCACGTGGGGGC

Relative binding free energy, -0.11 kcal/mol:
TGGTCCACGTGGTGAG

Relative binding free energy, 0.01 kcal/mol:
GGGGACACGTGCTGTT
AGAGGCACGTGATAGA
GTGGACACGTGTCAGT
TAAGGCACGTGTAGGG
TATTGCACGTGGACAG
TTTACCACGTGTGAGG
TTAGACACGTGTGTCA
TGTGACACGTGGATTA

Relative binding free energy, 0.07 kcal/mol:
GTTGACACGTGTATAT
TATGCCACGTGATGGG
GTTTGCACGTGTACTG
CGTCGCACGTGTTTGG

Relative binding free energy, -0.18 kcal/mol:
CGAAGCACGTGGGTGG
AAAAGCACGTGGGTAT

Relative binding free energy, 0.43 kcal/mol:
ATTTTCACGTGATCAT
AAGTTCACGTGTGATC
GAGAACACGTGAGTAG

Relative binding free energy, -0.25 kcal/mol:
AGTGGCACGTGGTATG
GTACGCACGTGGGGAT

Relative binding free energy, -0.19 kcal/mol:
ATCGGCACGTGGGTAT

Relative binding free energy, 0.17 kcal/mol:
ATTTACACGTGTGGCT
TATTTCACGTGGAGTG
GTTGTCACGTGGTTCG
TTCATCACGTGTTGGA
AGTTACACGTGATCGT

Relative binding free energy, 0.2 kcal/mol:
GTTATCACGTGGAGGT
GGCTTCACGTGTTTTA

Relative binding free energy, 0.12 kcal/mol:
TTTCGCACGTGTAGGG
GTTCTCACGTGGGTGC
ACTTTCACGTGGAGTG
GCGTGCACGTGAGGGG
ATGGACACGTGTAGGC

Relative binding free energy, 0.18 kcal/mol:
TATGTCACGTGTTAAC
GTGTTCACGTGGGGTG
TTAGTCACGTGACTTA
ATTAACACGTGATGGG
GGATTCACGTGGCCTG
GTCGGCACGTGAAGTA
AAAGACACGTGTGGTT
GTGGTCACGTGCATGG
GGTTACACGTGTGGCG

Relative binding free energy, 0.03 kcal/mol:
GTGGACACGTGGTTTT

Relative binding free energy, -0.35 kcal/mol:
AAACGCACGTGGGTGT

Relative binding free energy, 0.28 kcal/mol:
TTTCTCACGTGTCTTG

Relative binding free energy, -0.05 kcal/mol:
GGGAGCACGTGTTTGT
TCTGGCACGTGGTTAT
TAGGTCACGTGGATCG
GTTTACACGTGCGCGG

Relative binding free energy, 0.46 kcal/mol:
GTGTTCACGTGACCGG

Relative binding free energy, -0.24 kcal/mol:
CTGAGCACGTGGGATG

Relative binding free energy, 0.19 kcal/mol:
TACATCACGTGCGGTG
ATATTCACGTGGTGGG
TACTTCACGTGTGTAT

Relative binding free energy, -0.06 kcal/mol:
GCGAGCACGTGGCGGT
TTATCCACGTGGGATA
CGCGGCACGTGTTAGT
GGATGCACGTGGCGGA
TGTAGCACGTGTGACG
GGAGACACGTGGGAGG

Relative binding free energy, 0.35 kcal/mol:
CAGTTCACGTGTGCGG

Relative binding free energy, 0.05 kcal/mol:
TAGGTCACGTGTACGA
GTGCACACGTGGATTG
GGGTCCACGTGCTGTT
TTTGTCACGTGCGGGA
TGCGTCACGTGTTGTG

Relative binding free energy, -0.01 kcal/mol:
TGTAGCACGTGACTTA
TGTAGCACGTGCAGTG
TTCCGCACGTGTTTTG
TGTGTCACGTGGTGAC
TATGTCACGTGTCGGA
TTAGACACGTGGCTAT
AGGAACACGTGTCGTG

Relative binding free energy, -0.04 kcal/mol:
GGTGGCACGTGGTTCT
TAGGCCACGTGTTTAT
GTGGACACGTGGTAGG
TGCGACACGTGCGTGG
AAATACACGTGGGCGT
GGGTGCACGTGGGCGG
CTGCTCACGTGGTGGT

Relative binding free energy, 0.37 kcal/mol:
TGTTTCACGTGTAATT
GGATTCACGTGTGTGT
GAAGTCACGTGAGATG

Relative binding free energy, 0.21 kcal/mol:
ATTTGCACGTGAATGC
CTAGTCACGTGTGTTT
TAGGTCACGTGTTAAG

Relative binding free energy, 0.29 kcal/mol:
TTCTTCACGTGGACGG
TGTAACACGTGAAGTA
TTATTCACGTGGGAAT
GGCGGCACGTGAGATT
AGCGTCACGTGAGTTT

Relative binding free energy, 0.04 kcal/mol:
TATTGCACGTGTCGGG
AGAGTCACGTGTGGTG
TGGATCACGTGCGCGT
TTATACACGTGTGGTA
TATTCCACGTGTGTAA

Relative binding free energy, 0.02 kcal/mol:
AGGGTCACGTGGGCAC
TTTTGCACGTGCTTGA
GTGGCCACGTGGAGAA
TTTATCACGTGGTAAG

Relative binding free energy, -0.07 kcal/mol:
TATTGCACGTGTCAGT

Relative binding free energy, 0.26 kcal/mol:
CTTATCACGTGTAGGA
AGGCTCACGTGTAGGT
TTAGACACGTGCGGAG
TATTGCACGTGAACAT

Relative binding free energy, -0.1 kcal/mol:
GGGCCCACGTGTGGTG

Relative binding free energy, 0.32 kcal/mol:
AGAGTCACGTGAGTCT
GTTTTCACGTGCGGGA
AAAGTCACGTGTAAAT

Relative binding free energy, -0.16 kcal/mol:
GGAACCACGTGGTGGT
ATGAGCACGTGGTAGT

Relative binding free energy, -0.27 kcal/mol:
TGCGCCACGTGGCGGG

Relative binding free energy, 0.24 kcal/mol:
GCTGTCACGTGAATTG
GTAGTCACGTGTAGGG
AGGGTCACGTGTCTTT
AGATTCACGTGGTGAT
GGTGTCACGTGTGCGA
CTGATCACGTGTAATG

Relative binding free energy, 0.27 kcal/mol:
GTTGTCACGTGCGGTA
TGTCTCACGTGTGAGG
ACGGTCACGTGTGAGG

Relative binding free energy, 0.33 kcal/mol:
GTGGTCACGTGATGGA
TCTTTCACGTGGTGAT
GTATTCACGTGTGGGA

Relative binding free energy, 0.23 kcal/mol:
TTTCACACGTGTAATT
ATGGTCACGTGTCCAT
GTACGCACGTGAATGG
GGTTACACGTGGAAGG
ACGGGCACGTGAATTT
GTTTACACGTGTTTTA
TGCTGCACGTGAATTG

Relative binding free energy, 0.09 kcal/mol:
AGGGGCACGTGAAGAT
GTTAGCACGTGTTGAG
TGGTACACGTGGAAGG
TGCATCACGTGTGTCG
TATTTCACGTGGGCAA

Relative binding free energy, -0.26 kcal/mol:
GGAAGCACGTGGTGTG

Relative binding free energy, -0.15 kcal/mol:
CTGCGCACGTGTGTGG
GGCAACACGTGGGGGA

Relative binding free energy, 0.16 kcal/mol:
TCTGGCACGTGTGAGC
TTTATCACGTGTCGCT
GGGTACACGTGGATGT
GGGGTCACGTGTTTGA

Relative binding free energy, 0.06 kcal/mol:
GTTAACACGTGTCATG
TATTCCACGTGGCTTT
ATTTGCACGTGAGGCG
TTGGGCACGTGTGGGT

Relative binding free energy, -0.12 kcal/mol:
ATTGACACGTGTGCGT
AGTCGCACGTGTTATG
TAGAGCACGTGCGGTG
GGGCACACGTGCGGGG
TTCCGCACGTGGGGGT
TACTGCACGTGTAGTG

Relative binding free energy, 0.14 kcal/mol:
TTTCTCACGTGTTTAA
TTGTACACGTGATGGA
GAACTCACGTGTGTGT
GGTTACACGTGGTTAG

Relative binding free energy, -0.08 kcal/mol:
CTTGGCACGTGGTGGG
CTGGGCACGTGATGCG
TTGACCACGTGGTTTG
GGGAGCACGTGGAGTC

Relative binding free energy, 0.31 kcal/mol:
CGATGCACGTGAGCGT
GTTATCACGTGTCGTT
CTTTTCACGTGTGAAA

Relative binding free energy, 0.08 kcal/mol:
ATTAGCACGTGAGTGC
TTCGTCACGTGCAGGT

Relative binding free energy, -0.17 kcal/mol:
TTGGGCACGTGGGACA
TTATCCACGTGGTAGG

Relative binding free energy, -0.2 kcal/mol:
TATGGCACGTGCATGG
GCGGCCACGTGGGGTA

Relative binding free energy, 0.15 kcal/mol:
GTTCGCACGTGTGGGG
GTATGCACGTGATAGT
CATATCACGTGTTATT
AGGCTCACGTGGCGGG
TATGACACGTGATTTG

Relative binding free energy, 0.25 kcal/mol:
GGGCACACGTGTTGTC
ATGTTCACGTGACGTG
TTTCTCACGTGATGTG

Relative binding free energy, -0.02 kcal/mol:
TGGTGCACGTGTACGG
TGTAGCACGTGTAGTA
AACGGCACGTGTAGGT
GTGCACACGTGGTTAT
TGGAGCACGTGTAAAT
ATGGTCACGTGTTTCA
GGGAGCACGTGGTTTC
ATGGTCACGTGTGAAA
ATGGGCACGTGGAATA

Relative binding free energy, 0 kcal/mol:
TCAGGCACGTGTGGGC
TGTAGCACGTGTATGG
GGGGTCACGTGGGAGC
GGGAACACGTGTGCAG
GTATGCACGTGCTGTG

Relative binding free energy, 0.11 kcal/mol:
TGAGGCACGTGTAAGC
TATTTCACGTGTACGG
GATAACACGTGTGGGT
CTTGTCACGTGTTAGG

Relative binding free energy, 0.34 kcal/mol:
TGGTTCACGTGACAGG

Relative binding free energy, -0.13 kcal/mol:
TTTGACACGTGGCGGT
ATGGGCACGTGGCTCT
GGTGGCACGTGCTTTG
GAGGACACGTGGGTGT
GTCGGCACGTGGTGAT
GGAAGCACGTGCAGGG

Relative binding free energy, -0.21 kcal/mol:
AGTAGCACGTGGTCTG
GGTAGCACGTGGGATG

Relative binding free energy, 0.5 kcal/mol:
AAGTTCACGTGAGGTT

Relative binding free energy, -0.33 kcal/mol:
TCTGCCACGTGGGGTG

Relative binding free energy, 0.22 kcal/mol:
GAGATCACGTGTGGTG
AGATTCACGTGTGATG
GAGCGCACGTGAGTGG
TAGGTCACGTGAGAGA
TTTTCCACGTGTGGGG

Relative binding free energy, -0.09 kcal/mol:
GGGCGCACGTGTAGGC
GTGAACACGTGGTGTC
GCGGACACGTGCGGTG

Relative binding free energy, 0.13 kcal/mol:
GGTAGCACGTGACGTG
TACGACACGTGAGGGT
GGTGTCACGTGCAGCA
TGTTACACGTGTGTTA
CCTGTCACGTGGAGGG

Relative binding free energy, 0.3 kcal/mol:
GTGAACACGTGAGTTG

Relative binding free energy, -0.14 kcal/mol:
TCAGTCACGTGCGTGG
AGGCACACGTGGTGTT
